Results are given in words; binding and its absence hold for the method and conditions named. For some assays here: Binding seen in cells or lysates may run through a third protein. Some entries that bind do so weakly or less than the wild type. Tags and fused reporters may be left off the sequences shown.

The values below come from paper PMC4577084.

Experiment [1] deals with T1, JAGGED (JAG), yeast two-hybrid fusion (Arabidopsis thaliana) (UniProt Q6S591).
T1 sequence: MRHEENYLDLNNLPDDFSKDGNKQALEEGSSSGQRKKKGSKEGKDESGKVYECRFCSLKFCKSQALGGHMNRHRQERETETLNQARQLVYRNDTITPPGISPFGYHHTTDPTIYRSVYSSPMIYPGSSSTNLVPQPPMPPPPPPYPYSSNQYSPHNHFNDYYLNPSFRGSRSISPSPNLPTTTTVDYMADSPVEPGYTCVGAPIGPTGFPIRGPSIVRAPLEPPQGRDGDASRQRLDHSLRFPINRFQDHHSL
Put plainly: two-hybrid; Matchmaker GAL4 Two-Hybrid System 3, pGBKT7 bait and pGADT7 prey in yeast strain AH109; growth on medium lacking Leu, Trp, His and Ade or supplemented with 2.5 mM 3-AT.

In experiment [2] the target is T2, PETAL LOSS (PTL), yeast two-hybrid fusion (Arabidopsis thaliana) (UniProt Q9LZS0).
T2 sequence: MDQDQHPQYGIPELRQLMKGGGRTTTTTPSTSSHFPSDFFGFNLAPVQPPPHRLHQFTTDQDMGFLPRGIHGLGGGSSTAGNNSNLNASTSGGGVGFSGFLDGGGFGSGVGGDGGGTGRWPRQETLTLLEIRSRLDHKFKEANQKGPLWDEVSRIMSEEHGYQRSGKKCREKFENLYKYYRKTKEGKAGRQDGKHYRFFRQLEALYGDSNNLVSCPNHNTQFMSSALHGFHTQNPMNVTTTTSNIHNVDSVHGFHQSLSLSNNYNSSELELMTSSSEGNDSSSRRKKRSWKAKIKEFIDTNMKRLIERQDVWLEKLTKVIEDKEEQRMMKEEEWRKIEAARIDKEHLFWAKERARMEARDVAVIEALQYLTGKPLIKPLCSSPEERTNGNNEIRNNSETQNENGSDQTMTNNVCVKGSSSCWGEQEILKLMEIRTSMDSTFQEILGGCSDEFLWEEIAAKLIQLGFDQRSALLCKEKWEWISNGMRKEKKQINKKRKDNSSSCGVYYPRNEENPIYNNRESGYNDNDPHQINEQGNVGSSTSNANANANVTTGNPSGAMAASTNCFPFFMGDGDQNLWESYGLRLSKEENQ
The description is as above.

The target in experiment [3] is HANABA TARANU (HAN), yeast two-hybrid fusion (Arabidopsis thaliana) (UniProt Q8LC79). The description is as above.
The target of experiment [4] is T3, BLADE-ON-PETIOLE 1 (BOP1), yeast two-hybrid fusion (Arabidopsis thaliana) (UniProt Q9M1I7).
T3 sequence: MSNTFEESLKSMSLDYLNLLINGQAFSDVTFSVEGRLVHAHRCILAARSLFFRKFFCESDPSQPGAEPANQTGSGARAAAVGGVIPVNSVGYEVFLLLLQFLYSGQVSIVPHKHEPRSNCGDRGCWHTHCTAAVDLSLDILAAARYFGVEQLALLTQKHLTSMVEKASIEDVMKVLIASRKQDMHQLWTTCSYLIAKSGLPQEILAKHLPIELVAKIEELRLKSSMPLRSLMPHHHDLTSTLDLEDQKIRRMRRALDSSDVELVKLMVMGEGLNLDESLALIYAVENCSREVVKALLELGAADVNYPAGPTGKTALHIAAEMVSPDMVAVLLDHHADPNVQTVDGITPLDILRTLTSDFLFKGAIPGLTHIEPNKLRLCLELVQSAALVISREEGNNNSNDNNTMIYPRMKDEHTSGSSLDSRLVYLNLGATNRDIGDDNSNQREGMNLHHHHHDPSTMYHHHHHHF
The description is as above.

For experiment [5], the target named is T4, BLADE-ON-PETIOLE 2 (BOP2), yeast two-hybrid fusion (Arabidopsis thaliana) (UniProt Q9ZVC2).
T4 sequence: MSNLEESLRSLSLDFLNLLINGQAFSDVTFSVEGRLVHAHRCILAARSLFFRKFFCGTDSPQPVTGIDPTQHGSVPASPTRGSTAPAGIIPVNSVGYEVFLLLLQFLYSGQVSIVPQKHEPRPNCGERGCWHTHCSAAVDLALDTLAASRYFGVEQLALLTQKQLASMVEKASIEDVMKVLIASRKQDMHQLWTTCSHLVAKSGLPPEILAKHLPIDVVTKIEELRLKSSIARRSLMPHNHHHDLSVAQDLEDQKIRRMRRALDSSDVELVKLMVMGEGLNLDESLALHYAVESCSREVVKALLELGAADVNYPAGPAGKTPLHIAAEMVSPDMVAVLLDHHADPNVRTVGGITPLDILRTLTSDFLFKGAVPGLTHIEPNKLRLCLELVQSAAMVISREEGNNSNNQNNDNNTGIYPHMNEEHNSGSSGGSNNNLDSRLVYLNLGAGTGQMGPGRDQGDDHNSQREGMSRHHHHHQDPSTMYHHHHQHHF
The experiment is described as above.

Experiment [6] has as its target T5, KNAT1/B…US (BP), yeast two-hybrid fusion (Arabidopsis thaliana) (UniProt P46639).
T5 sequence: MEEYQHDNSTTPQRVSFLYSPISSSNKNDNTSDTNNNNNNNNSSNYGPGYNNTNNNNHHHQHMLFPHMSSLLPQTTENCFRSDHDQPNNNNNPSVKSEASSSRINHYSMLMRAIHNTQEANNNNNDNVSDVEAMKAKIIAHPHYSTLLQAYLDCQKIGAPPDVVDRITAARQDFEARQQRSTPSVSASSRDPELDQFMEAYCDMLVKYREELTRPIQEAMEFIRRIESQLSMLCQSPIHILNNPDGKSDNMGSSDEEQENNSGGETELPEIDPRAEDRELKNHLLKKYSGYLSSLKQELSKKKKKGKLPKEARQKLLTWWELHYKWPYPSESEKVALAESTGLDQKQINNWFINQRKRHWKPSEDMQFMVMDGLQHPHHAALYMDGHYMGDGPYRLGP
The description is as above.

The target in experiment [7] is T6, BLADE-ON-PETIOLE 2 (BOP2) fused with a half of YFP (BiFC) (Arabidopsis thaliana) (UniProt Q9ZVC2).
T6 sequence: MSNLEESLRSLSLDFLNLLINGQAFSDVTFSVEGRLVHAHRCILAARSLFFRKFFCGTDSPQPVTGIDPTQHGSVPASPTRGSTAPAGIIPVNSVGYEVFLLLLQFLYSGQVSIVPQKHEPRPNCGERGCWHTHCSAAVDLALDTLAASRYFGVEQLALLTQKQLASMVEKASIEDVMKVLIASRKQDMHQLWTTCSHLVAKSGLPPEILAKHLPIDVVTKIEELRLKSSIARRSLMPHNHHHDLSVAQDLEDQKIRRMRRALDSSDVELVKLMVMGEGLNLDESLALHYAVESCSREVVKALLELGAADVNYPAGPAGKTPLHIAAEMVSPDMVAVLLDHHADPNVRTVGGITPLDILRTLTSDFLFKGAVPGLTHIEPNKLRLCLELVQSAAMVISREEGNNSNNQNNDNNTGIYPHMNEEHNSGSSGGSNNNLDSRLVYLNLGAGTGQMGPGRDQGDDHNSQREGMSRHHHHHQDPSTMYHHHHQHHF
Description: split reporter; BiFC: fusions with YFP N- or C-terminal half (pSPYNE-35S, pSPYCE-35S) co-introduced into the abaxial side of Nicotiana benthamiana leaves; imaged 48 h after co-infiltration; YFP fluorescence in nuclei.

The target in experiment [8] is T7, KNAT1/B…US (BP) fused with a half of YFP (BiFC) (Arabidopsis thaliana) (UniProt P46639).
T7 sequence: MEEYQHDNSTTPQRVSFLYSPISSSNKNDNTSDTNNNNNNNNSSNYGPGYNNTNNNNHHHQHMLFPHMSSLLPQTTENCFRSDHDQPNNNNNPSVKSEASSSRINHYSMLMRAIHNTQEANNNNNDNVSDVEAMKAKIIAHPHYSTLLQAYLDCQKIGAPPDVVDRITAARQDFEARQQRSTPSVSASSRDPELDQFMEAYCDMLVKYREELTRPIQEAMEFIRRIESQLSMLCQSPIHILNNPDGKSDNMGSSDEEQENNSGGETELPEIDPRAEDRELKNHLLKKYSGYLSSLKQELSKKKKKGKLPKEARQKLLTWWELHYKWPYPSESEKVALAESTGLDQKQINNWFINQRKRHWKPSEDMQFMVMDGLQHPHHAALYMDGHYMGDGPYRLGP
Described as above.

Experiment [9] has as its target T8, BLADE-ON-PETIOLE 1 (BOP1) fused with a half of YFP (BiFC) (Arabidopsis thaliana) (UniProt Q9M1I7).
T8 sequence: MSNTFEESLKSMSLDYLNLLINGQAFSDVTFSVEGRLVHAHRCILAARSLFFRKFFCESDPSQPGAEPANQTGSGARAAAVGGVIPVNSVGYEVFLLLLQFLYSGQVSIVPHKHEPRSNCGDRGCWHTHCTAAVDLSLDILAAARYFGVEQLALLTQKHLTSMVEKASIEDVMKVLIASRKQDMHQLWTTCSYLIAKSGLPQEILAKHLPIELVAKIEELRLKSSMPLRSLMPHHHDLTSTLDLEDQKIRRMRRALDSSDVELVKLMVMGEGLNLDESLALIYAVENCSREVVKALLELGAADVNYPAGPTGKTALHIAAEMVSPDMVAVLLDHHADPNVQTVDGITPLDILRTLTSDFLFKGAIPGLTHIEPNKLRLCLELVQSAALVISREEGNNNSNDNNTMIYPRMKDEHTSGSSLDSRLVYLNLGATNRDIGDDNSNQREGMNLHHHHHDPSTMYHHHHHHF
The experiment is described as above.

Experiment [10] concerns the target T9, PINHEAD (PNH) fused with a half of YFP (BiFC) (Arabidopsis thaliana) (UniProt Q9XGW1).
T9 sequence: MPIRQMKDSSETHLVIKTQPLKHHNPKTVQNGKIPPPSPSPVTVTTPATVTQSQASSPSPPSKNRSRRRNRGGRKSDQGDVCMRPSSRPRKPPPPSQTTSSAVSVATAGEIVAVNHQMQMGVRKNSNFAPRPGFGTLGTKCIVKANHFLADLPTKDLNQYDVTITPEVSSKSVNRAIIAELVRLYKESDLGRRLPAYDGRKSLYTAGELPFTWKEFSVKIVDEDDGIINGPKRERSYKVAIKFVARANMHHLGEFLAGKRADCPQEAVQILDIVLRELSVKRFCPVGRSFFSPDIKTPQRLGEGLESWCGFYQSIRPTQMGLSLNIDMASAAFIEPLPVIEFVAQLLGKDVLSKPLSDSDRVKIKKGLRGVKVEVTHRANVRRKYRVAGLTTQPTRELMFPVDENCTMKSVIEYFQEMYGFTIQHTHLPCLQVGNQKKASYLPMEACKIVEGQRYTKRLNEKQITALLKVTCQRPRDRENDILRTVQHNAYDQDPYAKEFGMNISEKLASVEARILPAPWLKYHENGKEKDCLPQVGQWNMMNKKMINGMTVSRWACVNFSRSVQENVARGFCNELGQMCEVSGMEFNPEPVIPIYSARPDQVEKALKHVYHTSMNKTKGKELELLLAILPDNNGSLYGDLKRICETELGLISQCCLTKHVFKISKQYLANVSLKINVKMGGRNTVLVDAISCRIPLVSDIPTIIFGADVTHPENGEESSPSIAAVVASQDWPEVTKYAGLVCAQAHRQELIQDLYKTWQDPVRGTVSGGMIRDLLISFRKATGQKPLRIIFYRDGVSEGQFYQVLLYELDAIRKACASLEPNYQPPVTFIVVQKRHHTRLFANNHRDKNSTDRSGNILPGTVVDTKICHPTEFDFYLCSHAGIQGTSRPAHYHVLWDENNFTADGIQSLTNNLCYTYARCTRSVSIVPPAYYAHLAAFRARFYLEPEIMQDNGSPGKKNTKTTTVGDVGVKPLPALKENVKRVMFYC
The experiment is described as above.

Experiment [11] deals with T10, JAGGED (JAG) fused with a half of YFP (BiFC) (Arabidopsis thaliana) (UniProt Q6S591).
T10 sequence: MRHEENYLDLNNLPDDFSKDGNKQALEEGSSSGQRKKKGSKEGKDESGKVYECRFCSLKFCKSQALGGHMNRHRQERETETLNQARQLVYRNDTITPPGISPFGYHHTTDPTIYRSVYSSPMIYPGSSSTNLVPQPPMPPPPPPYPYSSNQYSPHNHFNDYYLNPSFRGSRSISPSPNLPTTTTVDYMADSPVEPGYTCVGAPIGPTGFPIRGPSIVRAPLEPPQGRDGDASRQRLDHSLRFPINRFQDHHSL
Described as above.

B1: HANABA TARANU (HAN), yeast two-hybrid fusion (protein, UniProt Q8LC79 1-295)
chain: MMQTPYTTSTQGQYCHSCGMFHHHSQSCCYNNNNNSNAGSYSMVFSMQNGGVFEQNGEDYHHSSSLVDCTLSLGTPSTRLCEEDEKRRRSTSSGASSCISNFWDLIHTKNNNSKTAPYNNVPSFSANKPSRGCSGGGGGGGGGGGGDSLLARRCANCDTTSTPLWRNGPRGPKSLCNACGIRFKKEERRTTAATGNTVVGAAPVQTDQYGHHNSGYNNYHAATNNNNNNGTPWAHHHSTQRVPCNYPANEIRFMDDYGSGVANNVESDGAHGGVPFLSWRLNVADRASLVHDFTR
Consider B1, for which the binding result is “binds” in [1]; “no binding” in experiment [2]; “binds” in experiment [3]; “no binding” in [4]; “no binding” in experiment [5]; “no binding” in [6].

B2: HANABA TARANU (HAN) fused with a half of YFP (BiFC) (protein, UniProt Q8LC79 1-295)
chain: MMQTPYTTSTQGQYCHSCGMFHHHSQSCCYNNNNNSNAGSYSMVFSMQNGGVFEQNGEDYHHSSSLVDCTLSLGTPSTRLCEEDEKRRRSTSSGASSCISNFWDLIHTKNNNSKTAPYNNVPSFSANKPSRGCSGGGGGGGGGGGGDSLLARRCANCDTTSTPLWRNGPRGPKSLCNACGIRFKKEERRTTAATGNTVVGAAPVQTDQYGHHNSGYNNYHAATNNNNNNGTPWAHHHSTQRVPCNYPANEIRFMDDYGSGVANNVESDGAHGGVPFLSWRLNVADRASLVHDFTR
In the case of B2, the binding entry in [7] was “no binding”; in experiment [8] it was “no binding”; in [9] it was “no binding”; in experiment [10] it was “binds”; in experiment [11] it was “binds”.
